Reference: the supplement of paper PMC3724861
Some of the results follow.

System: T1, Caupolican (Caup) homeodomain DNA-binding domain
T1 sequence: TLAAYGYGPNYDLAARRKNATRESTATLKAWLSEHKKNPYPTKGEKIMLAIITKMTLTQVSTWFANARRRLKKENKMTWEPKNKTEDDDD
Experiment: PBM E-score (8-mer, recovered from the published 9-mer minima) (E-score (dimensionless, -0.5 to 0.5)); Drosophila protein; higher = stronger relative binding preference, active = 0.31 or more
Summary of the method: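 An enrichment score, with higher meaning stronger, expresses relative binding preference for each short DNA word. The protein used was Caup's homeodomain DNA-binding domain (residues 214-303), produced by in vitro transcription and translation and tested at 100 nM on custom-designed protein binding microarrays. The 8-mer values were recovered from published 9-mer scores, each equal to the lower of its two constituent 8-mer scores.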

Sequence	PBM E-score
CGGTAATA	inactive: 0.102
GAATATAA	inactive: 0.102
AGGAGGCC	inactive: -0.19
CTCGGGTC	inactive: -0.173
CGACGACC	inactive: -0.0986
AAGGTTAA	inactive: -0.0112
CGCCTTCC	inactive: -0.23
ACGTAGCA	inactive: 0.0628
GCCAACCA	inactive: -0.17
CGTGCGTA	inactive: 0.00167
AGATTAGG	inactive: 0.00061
AGCCGGAA	inactive: -0.0717
AAACATTC	inactive: 0.209
GGCGGATA	inactive: -0.128
GCCCGGCC	inactive: -0.304
ATTCCAAC	inactive: 0.0683
CGAGCACA	inactive: 0.0885
CGCGCTAA	inactive: -0.0369
GAATGTAA	inactive: 0.223
ACAGCCGA	inactive: -0.0617
AACGGAAT	inactive: 0.0789
AGCCTTTG	inactive: -0.0446
GCGTCCGA	inactive: -0.109
GGTAGGTA	inactive: 0.0213
AGCGTTTC	inactive: -0.113

Sequence	PBM E-score
CCCAATAG	inactive: 0.0116
CTAAGATC	inactive: 0.00342
ATTAGTAC	inactive: 0.244
AAGTATGG	inactive: 0.0421
ATGGGCGG	inactive: -0.0618
AATAATTA	inactive: 0.182
GATAGACA	inactive: 0.221
CCAGTCGG	inactive: -0.252
ATCCTGTG	inactive: 0.124
AGGTGACT	inactive: 0.0561
CTTTCCGC	inactive: -0.119
TGACCTAA	inactive: 0.102
CATTAGCA	inactive: 0.0578
AGGGGGCC	inactive: -0.328
GCAGATCC	inactive: -0.0138
CCACATTC	inactive: -0.0268
CATCTCTC	inactive: -0.0604
TCACTGAA	inactive: -0.0594
AAAACTCG	inactive: 0.0449
ATTAGAGG	inactive: -0.11
ATTCTTAC	inactive: 0.0953
CCCAGGTC	inactive: -0.202
CCTGCGCC	inactive: -0.256
ACTCAAAA	inactive: 0.0451
CACCTCGA	inactive: -0.0164

Sequence	PBM E-score
AGATGGAT	inactive: -0.00579
AGTCGTTC	inactive: 0.0704
CACCGTAA	inactive: 0.0636
ATATAGAC	inactive: 0.16
ACGCAACG	inactive: -0.0397
CCCCAGAC	inactive: -0.279
AGCGTTAC	inactive: 0.0202
GGAAATAC	inactive: 0.028
ATGGAGAA	inactive: 0.00663
AGAACGGA	inactive: -0.0256
AGTCCGAC	inactive: 0.00681
GACAATAC	inactive: 0.243
CTGCAATC	inactive: -0.0299
ATCCGTAG	inactive: -0.0801
TAAGATGA	inactive: 0.0929
CTACAGTA	inactive: 0.143
CCTCGACA	inactive: 0.115
CTGTCAGA	inactive: 0.0887
CAGGGCTC	inactive: -0.224
CACAAAAG	inactive: -0.0474
AGTAATAT	inactive: 0.206
CTCAGACC	inactive: -0.175
GTGAGGTA	inactive: 0.00731
CAGCCACC	inactive: -0.164
CGAGAAAA	inactive: -0.00744

Sequence	PBM E-score
CTAATCGC	inactive: -0.0168
TTATCAAA	inactive: 0.109
AAGAAGCA	inactive: -0.0425
GCGCTACC	inactive: -0.168
AAATGGAA	inactive: 0.0926
ATTTAATA	≥ 0.213
AAGACGCT	inactive: -0.12
TATGAACA	inactive: 0.286
GCGAGGCA	inactive: -0.165
GAGTCCAC	inactive: -0.111
CTAACGCA	inactive: -0.0602
CCGCAAGG	inactive: -0.169
ATTGCGGA	inactive: -0.0272
TCAGCGAA	inactive: -0.126
CAGCTTCA	inactive: -0.0122
AAACACGA	active: ≥ 0.351
ATTCTCCG	inactive: -0.0182
AGATTATA	inactive: 0.0814
ATTTTGTA	inactive: 0.257
CACACGAG	inactive: 0.0345
CGTAGCGA	inactive: -0.161
ACTCGAAT	inactive: -0.0526
CACGATTA	inactive: 0.198
ATCCTTCG	inactive: -0.116
GGTGGGTA	inactive: -0.059

Sequence	PBM E-score
CGCGACCA	inactive: -0.128
AAAACTGA	inactive: 0.024
GATGGCAC	inactive: -0.0956
AGTCTGAC	inactive: -0.00953
GACCGAAA	inactive: -0.103
GGTTTTTA	inactive: 0.156
AGTTGGGC	inactive: -0.15
ACTAACTA	inactive: 0.0312
ATGGGCTA	≥ 0.0306
CCGGAGGA	inactive: -0.187
AAGTCTCG	inactive: -0.125
CAAAAGTA	inactive: 0.0662
CCGCGGGA	inactive: -0.162
ACCGTAAG	inactive: -0.0645
TCTTTTAA	inactive: 0.0287
CCGTTGAG	inactive: -0.108
ATGGCACA	inactive: 0.0648
CTCTCCAA	inactive: -0.098
CTATGGCA	inactive: -0.0578
TCATGCCA	inactive: 0.0318
ACTAGCCG	inactive: -0.0873
CCTCTGCA	inactive: -0.0612
CAGCCCTC	inactive: -0.2
AGGCGGTG	inactive: -0.124
CCAACCAA	inactive: -0.0875

Sequence	PBM E-score
ACACGGCC	inactive: 0.0794
TCGTAAAA	inactive: 0.0862
CCTACGAC	inactive: -0.0649
CGCTGAGC	inactive: -0.0837
TCTGAAGA	inactive: -0.049
ACGCCACC	inactive: -0.13
ATAATTTG	inactive: 0.127
AAACAACA	active: 0.363
CGATTATC	inactive: 0.0356
AAGTTGTA	≥ 0.308
CCACATCG	inactive: 0.0461
CGGGGATA	inactive: -0.0523
TCTCTGCA	inactive: -0.0535
CATCGACG	inactive: -0.0542
AGGCATTA	inactive: -0.0614
GGCTGTAA	inactive: 0.045
GTAGTGAC	inactive: 0.111
CGCATCCA	inactive: -0.0646
AAGGGTCG	≥ -0.0829
GAGAACGA	inactive: 0.00546
GCTCGATA	inactive: -0.101
AGATCTCA	inactive: -0.0458
CGGGGTCC	inactive: -0.223
GCCGTTGA	inactive: -0.0893
GTTGTACA	active: 0.388

Sequence	PBM E-score
GGCCATGA	inactive: -0.146
GCTTATGA	inactive: 0.0131
CGACGTCC	inactive: -0.16
AGGTGTTA	inactive: 0.207
AGACATCA	inactive: 0.197
ACTGTCAC	inactive: 0.0476
CAGGGTTA	inactive: -0.0166
AACATTGG	inactive: 0.159
ATAGCTAC	inactive: 0.0164
CCCGTTAA	inactive: -0.0644
ACAATAAA	inactive: 0.17
ACGACGCT	inactive: -0.0654
GCTCGAGA	inactive: -0.0658
ATAAGGGA	inactive: 0.0525
ATCGGAGC	inactive: -0.221
CGAAGGAA	inactive: -0.0222
AACGTAAT	≥ 0.214
AGGCTCGC	inactive: -0.138
TCCGTTCA	inactive: 0.0106
AGAGTACG	inactive: -0.075
CCAGCCGC	inactive: -0.245
CCATTGAC	inactive: -0.026
AGATTAAA	inactive: 0.115
ATTCTAAA	inactive: 0.0618
ATGTTAAT	active: 0.352

Sequence	PBM E-score
GAGGGACA	inactive: 0.0675
ATGGGACG	inactive: -0.109
CAAAGGGC	inactive: -0.135
CATGCTCG	inactive: 0.068
AAGGCTTA	inactive: -0.0473
AAATGGCA	≥ 0.0414
GTAGTATA	inactive: 0.219
ACGCTTGA	inactive: 0.0154
ACCGCATG	inactive: -0.0108
AGTGTTAC	inactive: 0.278
AGGCGCCG	inactive: -0.14
AAGGCCGT	inactive: -0.107
CTTTTAAA	inactive: -0.0196
CCGCAGCA	inactive: -0.196
ATTACCTG	inactive: 0.0771
ACTATCCA	inactive: 0.0891
CCACGTTA	inactive: 0.057
ATAGGACA	inactive: 0.208
AAATGGGG	inactive: -0.0821
AATTCGTC	inactive: 0.0479
ATCAATAG	inactive: 0.141
AACCCTTC	inactive: -0.055
CTCCCTCA	inactive: -0.179
CTAGAGTA	inactive: -0.0267
ATCCGTGC	inactive: 0.0481

Sequence	PBM E-score
GTGTGTTA	inactive: 0.275
AATCTAAT	inactive: 0.11
CGGCGGAA	inactive: -0.237
ATGGACCA	≥ 0.0351
CGCGCAAC	inactive: -0.0395
GCACTGAC	inactive: -0.0206
AGTCCTCC	inactive: -0.105
CCACGAGA	inactive: -0.107
CCCAGACA	inactive: 0.0239
CATAGGAA	inactive: 0.0598
TATTTGGA	inactive: 0.00759
GGCTATGA	inactive: -0.0593
GAGGACCA	inactive: -0.0284
AGAACCCA	inactive: -0.0466
ACACCAGT	inactive: 0.101
ACACAAAC	inactive: 0.261
CCCGATGC	inactive: -0.176
GCCCTGGA	inactive: -0.259
ATAGGCGC	inactive: -0.114
GAACTCAC	inactive: -0.0518
CTTGAAGC	inactive: -0.0852
CGACAATC	inactive: 0.053
ACTAAAGT	inactive: 0.012
